According to PMC3528106 (Neurobiology of disease, 2012):

What was measured:
[1] = target: T1, HDAC7 (Homo sapiens, UniProt Q8WUI4); assay: HDAC7 inhibition; conditions: read-out: IC50 for Class II HDAC enzymes: HDAC7; Table 1
T1 sequence (Q8WUI4 1-952): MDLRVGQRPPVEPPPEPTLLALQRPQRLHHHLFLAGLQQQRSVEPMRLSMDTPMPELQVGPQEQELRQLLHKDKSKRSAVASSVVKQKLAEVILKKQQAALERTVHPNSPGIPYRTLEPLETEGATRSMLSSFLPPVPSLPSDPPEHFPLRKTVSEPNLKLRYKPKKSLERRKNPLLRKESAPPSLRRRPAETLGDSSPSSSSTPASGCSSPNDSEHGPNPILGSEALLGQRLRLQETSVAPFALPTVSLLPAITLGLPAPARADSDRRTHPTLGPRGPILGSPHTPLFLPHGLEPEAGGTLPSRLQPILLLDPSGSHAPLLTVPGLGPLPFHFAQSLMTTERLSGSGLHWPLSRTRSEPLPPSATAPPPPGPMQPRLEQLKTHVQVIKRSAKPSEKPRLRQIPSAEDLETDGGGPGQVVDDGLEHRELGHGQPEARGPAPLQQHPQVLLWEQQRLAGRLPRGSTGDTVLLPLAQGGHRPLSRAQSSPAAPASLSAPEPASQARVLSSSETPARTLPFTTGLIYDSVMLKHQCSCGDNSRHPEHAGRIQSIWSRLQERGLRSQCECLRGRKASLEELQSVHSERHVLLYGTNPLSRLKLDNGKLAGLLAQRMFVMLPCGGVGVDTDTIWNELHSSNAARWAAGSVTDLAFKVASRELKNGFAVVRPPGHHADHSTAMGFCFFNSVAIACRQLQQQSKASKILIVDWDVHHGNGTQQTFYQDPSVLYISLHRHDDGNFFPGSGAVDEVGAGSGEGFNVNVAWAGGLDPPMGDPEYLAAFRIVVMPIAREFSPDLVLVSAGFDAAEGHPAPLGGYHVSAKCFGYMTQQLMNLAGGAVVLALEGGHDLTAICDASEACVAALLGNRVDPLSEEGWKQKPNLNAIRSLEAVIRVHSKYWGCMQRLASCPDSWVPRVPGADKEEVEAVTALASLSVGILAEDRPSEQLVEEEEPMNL

[2] = target: T2, HDAC8 (Homo sapiens, UniProt Q9BY41); assay: HDAC8 inhibition, recombinant enzyme cell-free assay; conditions: read-out: IC50 for Class I HDAC enzymes: HDAC8; Table 1
T2 sequence (Q9BY41 1-377): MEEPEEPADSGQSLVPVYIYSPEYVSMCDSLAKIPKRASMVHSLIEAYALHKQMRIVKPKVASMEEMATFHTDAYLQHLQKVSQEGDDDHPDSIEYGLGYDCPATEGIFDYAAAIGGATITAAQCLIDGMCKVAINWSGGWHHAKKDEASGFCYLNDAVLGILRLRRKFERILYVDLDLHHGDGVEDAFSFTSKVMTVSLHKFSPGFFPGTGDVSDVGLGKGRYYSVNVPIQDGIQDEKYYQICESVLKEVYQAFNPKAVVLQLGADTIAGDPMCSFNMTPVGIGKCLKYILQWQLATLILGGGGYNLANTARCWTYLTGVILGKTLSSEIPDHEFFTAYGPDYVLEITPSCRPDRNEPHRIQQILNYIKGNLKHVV

[3] = target: HDAC4 (Homo sapiens, UniProt P56524); assay: HDAC4 inhibition; conditions: read-out: IC50 for Class II HDAC enzymes: HDAC4; Table 1
HDAC4, sequence (P56524 whole entry, species assumed): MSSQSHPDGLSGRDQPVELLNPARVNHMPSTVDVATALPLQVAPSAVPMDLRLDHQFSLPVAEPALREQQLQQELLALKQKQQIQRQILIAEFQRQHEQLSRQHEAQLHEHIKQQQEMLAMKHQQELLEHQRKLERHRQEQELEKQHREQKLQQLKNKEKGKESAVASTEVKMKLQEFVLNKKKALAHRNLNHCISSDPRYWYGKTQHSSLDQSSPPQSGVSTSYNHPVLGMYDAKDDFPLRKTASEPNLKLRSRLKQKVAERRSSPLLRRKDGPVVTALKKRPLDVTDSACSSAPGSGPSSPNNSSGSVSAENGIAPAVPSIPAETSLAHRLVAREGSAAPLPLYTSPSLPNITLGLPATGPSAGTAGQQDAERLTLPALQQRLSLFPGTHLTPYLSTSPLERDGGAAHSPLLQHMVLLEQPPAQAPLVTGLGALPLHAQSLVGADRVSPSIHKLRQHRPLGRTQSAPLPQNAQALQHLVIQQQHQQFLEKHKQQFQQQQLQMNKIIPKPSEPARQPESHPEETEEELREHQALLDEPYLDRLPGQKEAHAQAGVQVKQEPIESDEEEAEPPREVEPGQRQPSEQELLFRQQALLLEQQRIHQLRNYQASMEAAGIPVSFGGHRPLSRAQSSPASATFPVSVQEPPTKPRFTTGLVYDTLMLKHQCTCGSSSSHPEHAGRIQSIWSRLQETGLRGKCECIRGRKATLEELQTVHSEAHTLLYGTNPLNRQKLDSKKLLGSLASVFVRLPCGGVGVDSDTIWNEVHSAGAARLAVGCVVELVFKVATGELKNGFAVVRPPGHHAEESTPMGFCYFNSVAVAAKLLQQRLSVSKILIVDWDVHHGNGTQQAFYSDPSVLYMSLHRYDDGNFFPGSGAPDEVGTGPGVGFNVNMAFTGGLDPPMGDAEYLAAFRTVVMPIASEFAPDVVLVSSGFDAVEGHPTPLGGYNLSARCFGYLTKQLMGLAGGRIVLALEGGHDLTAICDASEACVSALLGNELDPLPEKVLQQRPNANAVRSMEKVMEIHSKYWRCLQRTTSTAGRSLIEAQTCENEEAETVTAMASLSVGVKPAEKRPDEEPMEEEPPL

[4] = tested on: HD-related gene expression in striatum, R6/2 transgenic mice; assay: Real-time PCR of HD-related genes in striatum of R6/2 transgenic mice; conditions: 150 mg/kg s.c. three days
[5] = tested on: Drosophila melanogaster expressing Httex1p Q93; assay: Neurodegeneration rescue in Httex1p Q93 flies, pseudopupil technique; format: in vivo; conditions: 7 days post eclosion
[6] = target: HDAC5 (Homo sapiens, UniProt Q9UQL6); assay: HDAC5 inhibition; conditions: read-out: IC50 for Class II HDAC enzymes: HDAC5; Table 1
HDAC5, sequence (Q9UQL6 whole entry, species assumed): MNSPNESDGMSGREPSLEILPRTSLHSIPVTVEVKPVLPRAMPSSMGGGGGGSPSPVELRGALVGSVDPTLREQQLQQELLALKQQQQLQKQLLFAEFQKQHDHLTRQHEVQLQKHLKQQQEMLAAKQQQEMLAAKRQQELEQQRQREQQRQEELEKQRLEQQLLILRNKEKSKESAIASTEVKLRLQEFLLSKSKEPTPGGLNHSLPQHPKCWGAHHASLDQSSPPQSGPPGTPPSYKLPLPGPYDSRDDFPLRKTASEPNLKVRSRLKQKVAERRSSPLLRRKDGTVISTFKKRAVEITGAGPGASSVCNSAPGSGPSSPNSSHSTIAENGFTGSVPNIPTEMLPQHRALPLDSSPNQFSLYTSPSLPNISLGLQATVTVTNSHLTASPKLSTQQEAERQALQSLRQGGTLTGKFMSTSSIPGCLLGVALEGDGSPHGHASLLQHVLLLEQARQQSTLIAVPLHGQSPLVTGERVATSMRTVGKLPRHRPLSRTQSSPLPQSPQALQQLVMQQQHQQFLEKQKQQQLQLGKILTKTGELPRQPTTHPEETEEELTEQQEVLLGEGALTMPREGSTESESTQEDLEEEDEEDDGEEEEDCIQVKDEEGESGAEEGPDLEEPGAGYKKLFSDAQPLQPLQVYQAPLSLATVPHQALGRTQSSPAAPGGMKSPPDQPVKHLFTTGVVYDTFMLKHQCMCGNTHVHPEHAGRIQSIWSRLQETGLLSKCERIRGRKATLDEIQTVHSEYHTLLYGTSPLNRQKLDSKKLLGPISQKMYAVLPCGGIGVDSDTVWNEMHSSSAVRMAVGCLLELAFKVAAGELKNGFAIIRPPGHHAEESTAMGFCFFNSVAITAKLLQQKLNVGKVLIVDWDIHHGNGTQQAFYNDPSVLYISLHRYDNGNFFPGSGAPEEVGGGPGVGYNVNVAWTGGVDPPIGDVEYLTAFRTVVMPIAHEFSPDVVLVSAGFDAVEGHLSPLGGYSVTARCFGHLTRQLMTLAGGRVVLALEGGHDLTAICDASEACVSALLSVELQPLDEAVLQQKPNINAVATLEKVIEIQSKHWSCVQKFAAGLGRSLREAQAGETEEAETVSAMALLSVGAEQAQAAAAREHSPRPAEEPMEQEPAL

[7] = tested on: STHdhQ111 striatal cells; assay: XTT assay of metabolic activity in STHdhQ111 striatal cells; format: cell-based, mouse; conditions: mutant STHdh striatal cells

`Cc1ccc(C(=O)NCCCCCC(=O)Nc2ccccc2N)cc1` [compound 109] showed an IC50 [1] greater than 180 µM, an IC50 [2] of 10.7 µM and an IC50 [3] greater than 180 µM. For the same compound, the “reversal of expression of genes relevant to HD, in words” value [4] was “less effective”, the “rescue of eye neurodegeneration (rhabdomeres per ommatidium), in words” value (from here on “rescue … (rhabdomeres per ommatidium), in words”) [5] was “not effective” and the IC50 [6] was greater than 180 µM.

In the case of `Nc1ccc(-c2cccs2)cc1NC(=O)CCCCCCNC(=O)c1cccnc1` [compound 233], the “MEC, minimum effective concentration for metabolic improvement” value (from here on “MEC, minimum effective concentration”) ([7]; only effective at 24 hrs, not 48 hrs) is reported as 0.5 µM and the “concentration of the most potent effect at reducing eye neurodegeneration” value [5] is reported as 10 nM.

With `Nc1ccccc1NC(=O)c1ccc(CNC(=O)OCc2cccnc2)cc1` [MS275, reference compound] the “MEC, minimum effective concentration” value ([7]; XTT at 24 and 48 hrs) was 1 µM.

`Cc1ccc(NC(=O)CCCCCC(=O)Nc2ccccc2N)cc1` [4b] was tested, and the “MEC, minimum effective concentration” value ([7]; XTT at 24 and 48 hrs) was 0.5 µM and the “rescue … (rhabdomeres per ommatidium), in words” value [5] was “statistically significant effects”.

In the case of `Cc1ccc(C(=O)NCCCCCC(=O)Nc2ccc(F)cc2N)cc1` [compound 136], the “MEC, minimum effective concentration” value ([7]; XTT at 24 and 48 hrs) is reported as 1 µM and the “rescue … (rhabdomeres per ommatidium), in words” value [5] is reported as “statistically significant effects”.
